Among all 48,000 compounds or so, about 1,200 (2.5%) were called active. Inconclusive results (about 2%) are left out.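 How the source made its calls: active means activation of at least 60% and not above a set upper limit (about 1 call in 100 departs from these limits); inconclusive means activation of 40% to 60%, or above that upper limit; inactive means activation under 40%.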 This is one part of the list.

The target in the test is Probable G-protein coupled receptor 32 (Homo sapiens) (UniProt O75388). The test can be described thus: qHTS for Agonists of Human Resolvin D1 Receptor DRV1. Further: 0% is about no effect. Conditions: CHO-K1 GPR32 beta-arrestin PathHunter luminescence, 90 min; at 76.9 µM; hits give high values; zero percent set by DMSO-only wells. Put shortly: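 Beta-arrestin recruitment read-out: luminescence from complemented beta-Gal in CHO-K1 GPR32 PathHunter cells, measured 1 h after detection reagent at ambient temperature following 90 min compound exposure at 37 °C; DMSO served as basal (EC0) control.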
Chain of UniProt O75388 (O75388 whole entry, looked up): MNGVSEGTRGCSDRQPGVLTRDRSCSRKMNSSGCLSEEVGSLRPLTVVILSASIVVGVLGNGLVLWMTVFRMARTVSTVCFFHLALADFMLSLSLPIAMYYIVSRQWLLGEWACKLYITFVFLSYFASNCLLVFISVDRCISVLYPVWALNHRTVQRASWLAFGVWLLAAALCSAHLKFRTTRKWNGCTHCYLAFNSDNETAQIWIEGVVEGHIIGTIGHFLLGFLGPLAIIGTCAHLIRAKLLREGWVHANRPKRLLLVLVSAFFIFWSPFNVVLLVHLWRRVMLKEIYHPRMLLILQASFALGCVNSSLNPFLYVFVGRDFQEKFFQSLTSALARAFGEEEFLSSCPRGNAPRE
Regarding `CCOC(=O)c1ccccc1NC(=O)CSc1cn(CC(=O)N2CCCCC2)c2ccccc12`, the activation is inactive: -20.5%. On to `COc1cccc(CNC(=O)C2CCCN(S(=O)(=O)c3ccc4c(ccn4C)c3)C2)c1` (centres undefined), for which the activation is inactive: -11.5%. Then `Cc1nc2c(-c3ccccc3)c(C)nn2c(C)c1CCC(=O)NC(C)c1ccccc1` (centres undefined), with inactive: 11.5%; and `CCc1ccccc1NS(=O)(=O)c1ccc2[nH]cc(C(=O)N3CCCCC3)c(=O)c2c1`, with inactive: 13.1%.

Take `COc1cc(CN(C(=O)Nc2ccccc2)c2ccccn2)cc(OC)c1OC`: the activation is inactive: 4.53%.

On to `COc1ccc(NC(=O)CC2C(=O)N(c3ccc(F)cc3)C(=O)N2Cc2cccnc2)cc1` (centres undefined), for which the activation was inactive: -1.92%.

As to `Nc1ccn([C@@H]2O[C@H](CO)[C@@H](O)C2O)c(=O)n1` (some centres undefined), the activation was inactive: 13.1%. Then `CCCN(C(=O)c1cc2c(s1)-c1ccccc1OC2)c1ccccc1F`, with inactive: 36.7%; and `CCOC(=O)c1cccc(NC(=O)c2oc3c(c2C)-c2[nH]ncc2CC3)c1`, with inactive: -12.2%; and `CCC(C(=O)Nc1ccc(C(=O)OC)cc1)n1c(=O)c(-c2ccccc2NC(C)=O)nc2ccccc21` (centres undefined), with inactive: -40.6%. Then `Cc1ccc(NC(=O)c2cc(S(=O)(=O)NCCC3=CCCCC3)ccc2F)cc1F`, with inactive: 0.576%; and `COc1ccc(Cl)cc1NC(=O)c1ccc2nc(Cc3ccccc3)oc2c1`, with inactive: -15.6%.

In the case of `CC(C)CCNC(=O)c1cccc(Nc2nc3ccccc3n3nnnc23)c1`, the activation is inactive: -13.1%. As to `CCCC(=O)Nc1cc(C)c(O)c(-c2nc3ncccc3o2)c1`, the activation is inactive: -12.4%. As to `Cc1ccc(-n2nc(C(=O)N3CCN(c4cc(Cl)ccc4C)CC3)c(=O)n(C)c2=O)cc1`, the activation was inactive: 4.62%. Then `Cc1cc(NC(=O)c2ccc(Br)o2)cc(-c2nc3ccccc3o2)c1O`, with inactive: -1.08%; and `CCc1ccc(C(=O)c2cn(CC(=O)Nc3ccc(F)c(F)c3)c3cc(OC)c(OC)cc3c2=O)cc1`, with inactive: 13.4%. Under `CCCCNC(=O)C1CCCN(Cc2nc(-c3ccc(Cl)cc3)oc2C)C1` (centres undefined) stands inactive: 0.238%. Then `O=C(c1ccccc1Br)N(Cc1ccco1)C1CCS(=O)(=O)C1` (centres undefined), with inactive: -12.9%.

As for `CCCCCC(=O)N1c2ccccc2C(C)(c2ccccc2)CC1(C)C` (centres undefined), the activation is inactive: -20.3%. Then `CCC(Sc1nc2c(sc3ccccc32)c(=O)n1CCc1ccccc1)C(=O)N(CC)CC` (centres undefined), with inactive: 0.503%; and `O=C(c1ccc2c(c1)N(Cc1ccccc1)C(=O)c1ccccc1S2(=O)=O)N1CCCC1`, with inactive: -18.9%. On to `COc1cccc(CCNC(=O)Cn2c(-c3cccs3)cc3ccccc32)c1`, for which the activation is inactive: 34.8%. Then `Cc1ccc(C)c(N2CCN(C(=O)Nc3cn(CC(C)C)c(=O)c4ccccc34)CC2)c1`, with inactive: -18.8%; and `COc1ccc(NC(=O)CN2C(=O)C(c3ccc(C(C)(C)C)cc3)=NC2(C)C)cc1Cl`, with inactive: -12.9%; and `COc1ccc(Cn2c(C(=O)O)c(CNCC(C)c3ccccc3)c3ccc(OC)cc32)cc1` (centres undefined), with inactive: 25.7%. In the case of `Cc1cccc(Cc2cnc(NC(=O)C3Cc4ccc(C)cc4C(=O)O3)s2)c1` (centres undefined), the activation was inactive: 18.2%. Under `COc1ccccc1N1CCN(C(=O)C2CCN(S(=O)(=O)c3c(C)noc3/C=C/c3ccc(C)cc3)CC2)CC1` stands inactive: -2.11%; under `CCCCn1c(SCC(=O)Nc2cccc(OC)c2)nc2c(sc3ccccc32)c1=O`, inactive: -15.5%; under `COc1cccc(Cn2c(=O)n(CC3CCC(C(=O)N4CCCCC4)CC3)c(=O)c3sccc32)c1` (centres undefined), inactive: -11.5%. Under `CC(C)NC(=O)CCn1c(SCc2c(F)cccc2Cl)nc2c(sc3ccccc32)c1=O` stands inactive: -14%; under `CCOC(=O)N1CCN(Cc2nc3cc(NC(C)=O)ccc3n2C(C)C)CC1`, inactive: -8.63%; under `Cc1cc(C)cc(-n2c(SCC(=O)NCc3ccco3)nc3c([nH]c4ccccc43)c2=O)c1`, inactive: 17.3%. Under `COc1ccc(NC(=O)NCCc2c(C)nn(C)c2C)c(OC)c1` stands inactive: -5.25%; under `Cc1nnc2c(N3CCN(c4ccccc4F)CC3)nc3ccccc3n12`, inactive: 0.37%. For the compound `COc1cccc(NC(=O)CSc2nnc(COc3ccc(Cl)cc3)o2)c1`, the activation was inactive: 16.3%. `Cc1ccc2c(c1)c(=O)c1ccccc1n2CCCC(=O)Nc1ccc(C)c(F)c1`: the activation is inactive: 8.33%. For `Cc1cc(-n2c(SCC(=O)NCc3ccccc3)nc3ccsc3c2=O)ccc1Cl`, the activation was inactive: -21.2%. Under `CCOC(=O)c1cc(-c2ccc(C)cc2)n(CCC(=O)Nc2nc3c(C)cccc3s2)c1C` stands inactive: -0.766%. As to `Cc1ccc(S(=O)(=O)c2cnc(SCC(=O)Nc3cccc(Cl)c3)nc2N)cc1C`, the activation was inactive: 38.1%.

As to `COc1ccc(C(CC(=O)O)NC(=O)c2cc3ccccc3oc2=O)cc1OC` (centres undefined), the activation was inactive: 34.2%. Under `CCN(CC)C(=O)Cn1cc(SCC(=O)Nc2cccc(F)c2)c2ccccc21` stands inactive: -6.96%. Then `CCOC(=O)c1cnc2c(C)cc(C)cc2c1Nc1cccc(C(=O)O)c1`, with inactive: -0.618%; and `CCOCCCNC(=O)CN1C(=O)COc2ccc(S(=O)(=O)N3CCCCCC3)cc21`, with inactive: -11.9%.

For the compound `Cc1cccc(Cn2c(=O)n(Cc3ccc(C(=O)NC4CCN(Cc5ccccc5)CC4)cc3)c(=O)c3ccccc32)c1`, the activation was inactive: -5.17%. Then `Oc1ccc(Nc2nc3ccccc3n3cnnc23)cc1`, with inactive: 37.5%. Then `O=C(Nc1cccc2cccnc12)c1ccccc1[N+](=O)[O-]`, with inactive: -9.16%. Then `Cc1ccc(C2c3c(-c4cc(C)ccc4O)n[nH]c3C(=O)N2Cc2ccco2)cc1` (centres undefined), with inactive: 42.6%; and `Cc1ccc(NC(=O)CSc2nnc3nc(C)cc(C)n23)cc1`, with inactive: 16.1%.

Regarding `Cc1ccc(-n2ncc(C(=O)NCCCN3CCCCC3)c2C2CCN(C(=O)OC(C)(C)C)CC2)c(C)c1`, the activation is inactive: 8.83%. Turning to `CC(C(=O)NCc1ccccc1Cl)n1ccc2cc(S(=O)(=O)N3CCCCC3)ccc21` (centres undefined), the activation is inactive: 3.37%. Under `CCc1cccc(C)c1NC(=O)CCCn1c(=O)c2cccn2c2cccnc21` stands inactive: -18%; under `CCOC(=O)c1ccccc1NC(=O)NC(C)c1c(-n2cccc2)sc(C)c1C` (centres undefined), inactive: -26.2%; under `Cc1ccc(C)c(NC(=O)CN2C(=O)c3cccc4cccc2c34)c1`, inactive: -2.24%. Then `CCN(CC)C(=O)c1sc(NC(=O)c2nc3ncccn3n2)c(C(=O)OC)c1C`, with inactive: 14.3%; and `O=C(CSc1nc(-c2cccc(Cl)c2)nc2cc(=O)[nH]n12)Nc1ccccc1`, with inactive: 2.18%. For `O=c1c2ccccc2n2c(-c3ccccc3O)nnc2n1Cc1ccc(F)cc1`, the activation is inactive: 4.02%. Under `Cc1cccc(Cn2ccn(Cc3ccc(Cl)cc3)c(=O)c2=O)c1` stands inactive: -4.24%; under `COc1cccc(CNC(=O)CN2C(=O)CSc3c2c(C)nn3-c2ccccc2)c1OC`, inactive: 17.9%; under `Cc1cccc(C)c1NC(=O)c1nc(S(C)(=O)=O)ncc1N(Cc1ccc(F)cc1)Cc1ccco1`, inactive: -19.4%.

As to `Cc1ccc(Cl)cc1-n1c(=O)c2sc3ccccc3c2n(CC(=O)NC2CCCCC2)c1=O`, the activation is inactive: -3.17%. With `COc1ccc(CNC(=O)Cn2c(=O)oc3cc(S(=O)(=O)N4CCC(C)CC4)ccc32)cc1`, the activation was inactive: 4.42%. Consider `CCOC(=O)c1cnc2c(C)cc(C)cc2c1NCCc1ccc(OC)c(OC)c1`, for which the activation is inactive: 11.1%.

Consider `Cc1ccc2c(CC(=O)NCc3ccccc3)coc2c1C`, for which the activation was inactive: -15%. For the compound `COc1ccc(C(=O)N(Cc2ccc(N(C)C)cc2)Cc2ccco2)cc1Cl`, the activation is inactive: -8.46%.

As for `Cc1cc(-c2ccc(C)c(S(=O)(=O)Nc3ccccc3C(F)(F)F)c2)on1`, the activation was inactive: 4.45%. Under `O=c1c2sc3ccccc3c2n(Cc2ccccc2Cl)c(=O)n1Cc1ccccc1` stands inactive: -2.99%. Under `COC(=O)C(C)(N)Cc1ccc(O)cc1` (centres undefined) stands inactive: -2.35%. Then `Cc1ccc(C)n1-c1c(C(=O)NCC(C)c2ccccc2)sc2ncccc12` (centres undefined), with inactive: -2.69%. Take `O=C(NCCc1csc(-c2ccc(C(F)(F)F)cc2)n1)C(=O)Nc1cc(F)ccc1F`: the activation was inactive: 3.09%. Under `COc1ccc(NC(=O)CCCn2c(=O)c3cccn3c3ccccc32)c(OC)c1` stands inactive: -20.8%; under `COc1ccc(C(=O)Oc2c(Sc3ccc(Cl)cc3)c(C)nn2C(C)(C)C)cc1OC`, inactive: -18.8%; under `CCc1ccccc1NC(=O)Cn1c(=O)n(CCCS(=O)(=O)C2CCCCC2)c(=O)c2ccccc21`, inactive: -1.84%. Then `CCCCN(C)CCNC(=O)C1CCCN(S(=O)(=O)c2ccc3c(c2)oc(=O)n3C)C1` (centres undefined), with inactive: -34.2%; and `CCOC(=O)c1c(C)[nH]c(CCC(=O)NCCCN2CCN(c3cc(Cl)ccc3C)CC2)c1C`, with inactive: 14.2%. Under `Cc1c(CCNC(=O)Cc2ccc(F)cc2)sc2nc(-c3ccc(F)cc3)nn12` stands inactive: -23.8%; under `O=C(Cn1c(=O)c2ccccc2n(CC(=O)Nc2ccc(Cl)cc2)c1=O)NCCc1ccccc1`, inactive: -5.68%. For `CCOc1ccc(C(=O)Nc2cccc(OCc3cc(=O)n4ccccc4n3)c2)cc1`, the activation was inactive: -4.18%.

`Cc1cccc(CNS(=O)(=O)c2csc(C(N)=O)c2)c1`: the activation was inactive: 3.74%. Under `O=C1C(c2cccc(Br)c2)N(CCc2ccccc2)C(=O)CN1C1CCCCC1` (centres undefined) stands inactive: -5.19%; under `CCOc1cccc(CNCCNC(=O)c2nonc2N)c1`, inactive: -5.93%; under `Cc1ccccc1NS(=O)(=O)c1nnc(NC(=O)c2ccc(Cl)cc2)s1`, inactive: 19%. Under `CCOC(=O)c1[nH]c(C)c(CCC(=O)Nc2ccc(C(C)=O)cc2)c1C` stands inactive: -0.783%; under `O=S(=O)(Nc1cccc(-c2ccc(N3CCCCCC3)nn2)c1)c1ccc(F)cc1`, inactive: -8.76%.

The values above are taken from PubChem BioAssay AID1346428 (National Center for Advancing Translational Sciences (NCATS), 2018).
